Measured values as given in PubChem BioAssay AID651820 (National Center for Advancing Translational Sciences (NCATS), 2012).
The campaign covered roughly 340,000 compounds. About 12,000 (3.5%) were called active. Inconclusive means that the source gave no clear call. Such entries were picked first, then a sample of the others. Calls come from the whole dose curve; as a rule, active = well fitted inhibition curve with a large enough effect; inconclusive = small, poorly fitted or top-dose-only effect, or another doubt; inactive = no such curve, though single readings can be large or run the other way. Potencies of inconclusive entries are left out as doubtful fits.

Assay: qHTS Assay for Inhibitors of Hepatitis C Virus (HCV)
Conditions: Huh7.5.1 HCVcc-Cre (HCVcc is cell-culture hepatitis C virus) infection, luciferase reporter, 44 h; activity change, negative = inhibition: at 41.8 µM (top of the series)
Summary of the method: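 HCVcc-Cre virus at an moi near 0.5 was added right after compound to cells cultured 4 h from seeding (1,000 cells/well). Luciferase activity was determined 44 h later, 15 min after substrate addition at RT.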
% is set by controls: 0 for no effect and ±100 for the full control effect; potency is the fitted concentration of half-maximal effect; tags give direction and shape of the fitted curve.

Row | Structure (SMILES) | Potency | activity change, negative = inhibition
1 | COc1ccccc1N1CCN(CCN2C(=O)C3CCCCN3C2=O)CC1 (stereo not given) | inactive | 
2 | CN(Cc1ncc[nH]1)Cc1cn(-c2ccccc2)nc1-c1ccc2c(c1)OCO2 | inactive | 
3 | FC(F)(F)c1ccccc1NC(=S)N1CCN(c2ncccn2)CC1 | inconclusive [inhibitor, single point] | 
4 | COC(=O)c1ccc(N2Cc3ccccc3/C2=N\C(=O)Nc2ccccc2)cc1 | inactive | 
5 | Cc1nn(Cc2cccc(C(=O)Nc3ccn(Cc4ccccc4)n3)c2)c(C)c1[N+](=O)[O-] | inconclusive [inhibitor, partial curve, poor fit] | 
6 | COc1ccc(C(=O)Nc2cc(OC)cc3cccnc23)cc1 | inconclusive [inhibitor, partial curve] | 
7 | CCCN(C(=O)C1CC(=O)N(c2ccccc2C(C)CC)C1)C1CCS(=O)(=O)C1 (stereo not given) | inactive | 
8 | COc1cc(O)oc1C=Nc1ccc(C(=O)O)cc1 |  | inconclusive: -78.8% [inhibitor]
9 | O=C(Cc1ccc(S(=O)(=O)N2CCOCC2)s1)Nc1cc(C(F)(F)F)cc(C(F)(F)F)c1 | active: 11.2 µM | 
10 | O=C(Nc1ccccc1F)C1CCCN1S(=O)(=O)c1ccc(Cl)cc1 (stereo not given) | inconclusive [inhibitor, partial curve] | 
11 | CCOC(=O)C1CCCN(Cc2nc(N)nc(Nc3ccc(C)cc3)n2)C1 (stereo not given) | inconclusive [inhibitor, single point] | 
12 | CCOC(=O)c1ccc(NS(=O)(=O)c2c(C)n[nH]c2C)cc1 | inactive | 
13 | CC(C)c1cc(N2CCOCC2)n2ncc(-c3ccccc3)c2n1 | inconclusive [inhibitor, full curve] | 
14 | COC(=O)c1ccccc1NC(=O)COc1ccc(S(=O)(=O)NC(C)C)cc1 | inconclusive [inhibitor, partial curve, poor fit] | 
15 | CC(C)(C)C(=O)Nc1ccc(Sc2ccc([N+](=O)[O-])cc2)cc1 | inconclusive [inhibitor, single point] | 
16 | CC(=O)N1c2ccc(S(=O)(=O)N3CCC(C(=O)N4CCN(c5ccccc5)CC4)CC3)cc2CC1C (stereo not given) | inconclusive [inhibitor, single point] | 
17 | COc1ccc(O)c(/C=N/Nc2nc(Nc3ccccc3)nc(-n3nc(C)cc3C)n2)c1 | inconclusive [inhibitor, single point] | 
18 | COc1ccccc1N1CCN(C(=O)c2ccc(-c3ccc(Cl)cc3)o2)CC1 | active: 3.16 µM | 
19 | CC1CCc2cc(F)ccc2N1C(=O)CCl (stereo not given) | inconclusive [inhibitor, single point] | 
20 | COc1ccc(S(=O)(=O)NCCCCOc2ccc(Cl)cc2)cc1 | active: 25.1 µM | 
21 | CCOc1cc(CNCc2ccccc2)ccc1OCC(=O)NC1CCCCC1 | active: 2.51 µM | 
22 | CS(=O)(=O)NCc1nnc(SCc2ccccc2C(F)(F)F)o1 | inconclusive [inhibitor, partial curve] | 

Row | Structure (SMILES) | Potency | activity change, negative = inhibition
23 | COC(=O)c1cc(=O)n(Cc2ccc(F)cc2)c(=Nc2ccccc2)s1 | inconclusive [inhibitor, single point] | 
24 | Cc1ccc(Cn2c(SCC(=O)NCC3CCCO3)nc3c2c(=O)n(C)c(=O)n3C)cc1 (stereo not given) | inconclusive [inhibitor, full curve] | 
25 | CSc1ccccc1NC(=O)CN(C)CC(=O)c1[nH]c(C)c(C(C)=O)c1C | inconclusive [inhibitor, single point] | 
26 | CCOC(=O)/C(=C\c1ccc(Cl)cc1)c1nc2sc(C)c(C)c2c(=O)[nH]1 | inconclusive [inhibitor, single point] | 
27 | CCOCCCNCc1cc(Br)ccc1OCc1ccccc1 | inconclusive [inhibitor, single point] | 
28 | O=C(NCc1cccc(Cl)c1)c1cccc(OC2CCN(C(=O)C3CC3)CC2)c1 | inconclusive [inhibitor, single point] | 
29 | CS(=O)(=O)c1ccccc1C(=O)Nc1ccc(-c2nc3ccccc3o2)cc1 | inconclusive [inhibitor, single point] | 
30 | COc1ccc(/C=C2\CCc3ccccc3C2=O)c(OC)c1OC | inconclusive [inhibitor, single point] | 
31 | CC(C)Oc1ccc(CNCCC2(C(C)C)CCOC(C)(C)C2)cc1 (stereo not given) | inconclusive [inhibitor, full curve] | 
32 | COC(=O)[C@]1(Cc2ccccc2)N[C@H](CN(C)C(=O)COc2ccccc2)[C@@H]2C(=O)N(Cc3ccccc3)C(=O)[C@@H]21 | inconclusive [inhibitor, partial curve] | 
33 | CCC1(CC)NC(=O)N(CC(=O)OC(C)C(=O)Nc2ccccc2OC)C1=O (stereo not given) | inactive | 
34 | Cc1nc2c(C)cccn2c1C(=O)c1ccccc1 | inconclusive [inhibitor, single point] | 
35 | COc1ccc(C2CC(c3ccc(Br)cc3)=NN2C(=O)CSC2=NN3CCCC(=O)N=C3S2)cc1 (stereo not given) | inactive | 
36 | C=CC(=O)Nc1cccc(Oc2ncnc3[nH]cc(-c4cnc5ccccc5c4)c23)c1 | inconclusive [inhibitor, single point] | 
37 | COc1ccccc1C(=O)NC(CCSC)C(=O)N1CCN(C/C=C/c2ccccc2)CC1 (stereo not given) | inconclusive [inhibitor, partial curve] | 
38 | CC1(C)CC(NC(=O)COc2ccc(Cl)cc2Cl)CC(C)(C)N1 | inconclusive [inhibitor, partial curve] | 
39 | O=c1cc(-c2ccc(OCc3ccccc3)cc2)oc2cc(OCc3ccccc3)cc(OCc3ccccc3)c12 | inconclusive [inhibitor, partial curve] | 
40 | COc1ccc(Nc2nc(-c3sc(N)nc3C)cs2)cc1 | inconclusive [inhibitor, single point] | 
41 | O=C(NCCc1ccccc1)C1CCC(=O)N1C1CCCC1 (stereo not given) | inconclusive [inhibitor, full curve] | 
42 | COC(=O)/C(=C\c1ccc([N+](=O)[O-])o1)NC(=O)c1ccccc1 | inconclusive [inhibitor, single point] | 
43 | O=C(Nc1nnc(C2=COCCO2)o1)c1ccc([N+](=O)[O-])cc1 | inactive | 
44 | O=C(CSc1ccc(-c2cccc([N+](=O)[O-])c2)nn1)N1CCCCC1 | inactive | 

Row | Structure (SMILES) | Potency | activity change, negative = inhibition
45 | COCOc1cc(O)c(C(=O)/C=C/c2ccccc2)c(OCOC)c1 | inconclusive [inhibitor, partial curve] | 
46 | COc1cc(NC(=S)NC(C)(C)C)c(OC)cc1Cl | inconclusive [inhibitor, single point] | 
47 | FC(F)(F)c1cnc(Sc2nc3nccc(-c4ccc(Cl)cc4)n3n2)c(Cl)c1 | inconclusive [inhibitor, single point] | 
48 | Cc1ccc(C(=O)OCC(=O)NC(=O)c2ccccc2)o1 | inconclusive [inhibitor, partial curve, poor fit] | 
49 | Cc1cc(C)c(CN2CCN(C(=O)Cn3ccc(N)nc3=O)CC2)c(C)c1 | inactive | 
50 | CCN(CC)c1ccc(/C=N/NC(=O)c2c(Cl)cnn2C)c(O)c1 | active: 3.55 µM | 
51 | COC(=O)c1c(C)nn(-c2ccc(F)c(Cl)c2)c1-c1cc(C)on1 | active: 8.91 µM | 
52 | CCOC(=O)C1=C(CN2CCSCC2)NC(=O)NC1c1cccc([N+](=O)[O-])c1 (stereo not given) | inconclusive [inhibitor, single point] | 
53 | COc1cccc(/C=C2\SC(=O)N(CCC(=O)NNC(=O)c3cccc(Cl)c3)C2=O)c1 | inconclusive [inhibitor, full curve] | 
54 | CCOc1cc2c(cc1OCC)C(c1ccccc1OC)OC(=O)C2 (stereo not given) | inconclusive [inhibitor, single point] | 
55 | CCCCCCCCN1[C@@H](CC(=O)OC)c2cc(F)ccc2S1(=O)=O | inconclusive [inhibitor, single point] | 
56 | O=C(Nc1nnc(C2CC2)s1)c1ccccn1 | inconclusive [inhibitor, partial curve] | 
57 | O=c1cc(-c2ccccc2)oc2ccccc12 | inconclusive [inhibitor, single point] | 
58 | CCOC(=O)c1c(NC(C)=O)sc2c1C1CCN2CC1 | inconclusive [inhibitor, single point] | 
59 | CCCCCCSC1=C(C#N)C(c2ccc(C)o2)CC(=O)N1 (stereo not given) | inconclusive [inhibitor, single point] | 
60 | COC(=O)C1=C(c2ccc(OC(F)(F)F)cc2)C[C@@H]2CC[C@H]1N2C(=O)NC1Cc2ccccc2C1 | inconclusive [inhibitor, single point] | 
61 | O=C(CN1CCN(S(=O)(=O)c2ccc(Br)cc2)CC1)Nc1ccccc1C(=O)c1ccccc1 | inconclusive [inhibitor, single point] | 
62 | CCc1cccc(NC(=O)Cn2c(=O)n(CCC(=O)NCC3CCCO3)c(=O)c3cc(OC)c(OC)cc32)c1 (stereo not given) | inconclusive [inhibitor, single point] | 
63 | NC(=O)c1ccccc1NC(=O)c1ccc2ccccc2c1 | inconclusive [inhibitor, single point] | 
64 | COc1ccc([C@H]2CC(=O)C=C(c3cc4ccccc4c4ccccc34)C2)cc1 | inconclusive [inhibitor, single point] | 
65 | CCCCN(CCCNC(=O)CN1C(=O)COc2ccccc21)c1ccccc1 | inconclusive [inhibitor, partial curve] | 
